The supplement of paper PMC3334620
Over roughly 33,000 sequences, “E-score (-0.5 to 0.5)” has its median near -0.01; the highest 2% begin near 0.26. This is one part of the list.

Biological target: Ste12 (UniProt P13574)
Experiment: PBM E-score (8-mer binding enrichment) (E-score (-0.5 to 0.5)); higher = stronger / more preferred TF binding; most listed sequences are background and not binding sites
Conditions: protein concentration: 200 nM; construct: GST-DNA-binding domain
In short: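 GST-tagged yeast TFs (full-length or DNA-binding domain) were made by PURExpress in vitro transcription/translation and applied at about 100-200 nM to universal all-10-mer Agilent arrays. The arrays were made double-stranded by primer extension, on fresh or once-stripped slides. Bound protein was detected with fluorescent anti-GST, and scans were normalised with masliner. Each ungapped eight-base word, pooled with its reverse complement, received an E-score (modified Wilcoxon-Mann-Whitney statistic) from the Universal PBM Analysis Suite.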

Row | Sequence | PBM E-score
1 | CGAGTTAC | 0.0926
2 | GGTGTTAA | 0.126
3 | GCCGGTCA | 0.0635
4 | AAGGCCAT | -0.0634
5 | CTGCGCAC | 0.0412
6 | CCTCTTGA | 0.00072
7 | GGCCTGTA | -0.102
8 | GTGGGGAA | 0.129
9 | ACGATCGT | 0.0232
10 | AGAACCAC | -0.143
11 | GTGTGTAA | 0.137
12 | CCAAGCAC | -0.00196
13 | GCCCGAGA | -0.0722
14 | CAACTTTA | 0.161
15 | GAAACGGC | 0.229
16 | ACTACATC | -0.0411
17 | CTCGTCAC | 0.132
18 | GATCACAA | -0.0682
19 | ATATACAA | 0.216
20 | TATCAAAA | 0.302
21 | CGTTGTAA | 0.0721
22 | GTAAGATA | 0.0449
23 | ACCCTGGC | -0.196
24 | ATATGGTA | -0.0251
25 | AACGTAGT | -0.0284

Row | Sequence | PBM E-score
26 | CACATTGA | 0.0403
27 | GCTAAGCA | -0.163
28 | GGACGAAC | 0.0407
29 | CCGAATAC | 0.153
30 | AAATAATG | 0.135
31 | AAGATCTG | -0.0104
32 | CTCCCAAA | 0.0593
33 | CGCATCAA | 0.19
34 | AAAATGGT | 0.182
35 | AAACAAAC | 0.263
36 | AACAAGGG | -0.0931
37 | ATATTTCA | 0.139
38 | ACCCCAAA | 0.114
39 | CCTAAATA | 0.0919
40 | AGCACCTC | -0.154
41 | GGCTCATA | -0.0561
42 | CATTCCGA | 0.152
43 | CTGATAGC | 0.0439
44 | GGGGCCCA | -0.0553
45 | CAAATCAG | 0.236
46 | TACGACGA | 0.0292
47 | ACGGCGCT | 0.0539
48 | ACTTAAGG | 0.122
49 | ATAGGTGG | -0.0442
50 | ACTCAACG | -0.13

Row | Sequence | PBM E-score
51 | ATTGACCC | -0.121
52 | TATCGGGA | 0.136
53 | AGTTAGTG | 0.0205
54 | AAATAGAT | 0.275
55 | TGCCAACA | 0.0803
56 | TATCCATA | 0.0618
57 | CCTGCAGC | -0.074
58 | CCGTTACA | 0.318
59 | GCCGCATA | 0.0504
60 | AAACCGTG | -0.0313
61 | ACTTTTGG | 0.083
62 | CCGAAATA | 0.163
63 | CCTGTTTC | 0.32
64 | ATTGAAAG | 0.0623
65 | AGCAGTCA | -0.0532
66 | TTATAGAA | 0.0807
67 | CGCCACAG | -0.102
68 | AGGCCCAA | -0.0418
69 | AAATACCG | 0.0621
70 | CACGTCCC | -0.231
71 | AGGTTGAA | 0.055
72 | AAGAGCTG | -0.158
73 | TGTAGGAA | 0.0271
74 | ATGTCCTA | -0.138
75 | ACATCCCT | -0.0649

Row | Sequence | PBM E-score
76 | AAACCAGC | 0.0805
77 | GAAGTGGA | 0.0958
78 | TAGCGGCA | -0.033
79 | GGGAGGAA | 0.0149
80 | CTCGTAGA | -0.197
81 | AGCTTACA | -0.049
82 | CGATTCCG | -0.103
83 | ACATCATC | 0.0527
84 | CTGGGTGC | -0.0683
85 | GGCCAATA | 0.0845
86 | AAACTATC | 0.033
87 | CTCTATAA | 0.0733
88 | ATAAGCAC | -0.0531
89 | CATATAGG | -0.0995
90 | TACTGACA | 0.0473
91 | ACTGTGAT | -0.0243
92 | ACCGGCGA | 0.199
93 | CTGACTAC | -0.129
94 | ACTAAACG | -0.0755
95 | GTACGCCA | -0.014
96 | GAAGATGA | -0.107
97 | ACCGTACA | -0.0112
98 | GAGAGCTA | -0.0899
99 | AACGACGA | 0.0658
100 | GTCCCTTA | 0.11

Row | Sequence | PBM E-score
101 | ATTGGCCA | -0.216
102 | TGGTGCAA | -0.18
103 | ATGAATGA | 0.192
104 | GGAAAGCC | 0.00426
105 | CCCATGAG | -0.0476
106 | CGGTCTTC | 0.0919
107 | GTGATCGA | 0.161
108 | GGAGTATA | -0.00182
109 | GACCTCCA | -0.045
110 | TCCGGCGA | -0.0324
111 | CCGGACAA | -0.0587
112 | AACGCGGC | -0.0365
113 | GTTCTGGA | 0.00683
114 | ACACAACA | 0.0034
115 | AATGTTTC | 0.318
116 | AATGGATG | -0.00858
117 | ACAGGTAA | -0.0912
118 | AATTTGGT | 0.144
119 | ATGCTCCG | -0.0268
120 | ACCACCCA | 0.116
121 | AGACTTAC | -0.16
122 | TCCCGAAA | 0.211
123 | AGTGGTAT | -0.0443
124 | AATCGCCA | -0.14
125 | TCAAGGAA | -0.0777

Row | Sequence | PBM E-score
126 | AAGAGTGC | 0.00189
127 | ACAAGTAT | 0.0702
128 | GGAGTCTA | -0.165
129 | ATCCTTAA | 0.0034
130 | AAGTAAGC | -0.118
131 | CCGAGGTC | -0.211
132 | TCTCCTCA | -0.17
133 | TACGAGTA | 0.0477
134 | GCCTAAGA | -0.152
135 | GAGTCCGA | 0.0501
136 | GTGACTAA | 0.0255
137 | ACCCACGA | -0.00878
138 | GAGGCTGA | -0.0548
139 | ATATCTCA | 0.151
140 | GGCGAGTA | 0.19
141 | ATTATTTG | 0.106
142 | ACCTTTCG | -0.115
143 | CTCGTCCC | -0.0727
144 | CTCCAGCC | -0.232
145 | ATCACCCG | -0.015
146 | CGATTGGC | -0.094
147 | CTTCCCAA | 0.0485
148 | GATATAAC | 0.0323
149 | GTGGGGGA | -0.0367
150 | ACATAGCT | -0.269

Row | Sequence | PBM E-score
151 | ATTCTGTC | 0.101
152 | CGCTTTAA | -0.101
153 | AATGTCAC | -0.0144
154 | GTCTCTGA | -0.168
155 | ACAACCGT | -0.0961
156 | GAGAGACC | -0.117
157 | ACTCGAAA | 0.15
158 | ACGTCCGC | -0.117
159 | TACATCTA | 0.114
160 | ACGAGTCG | -0.107
161 | CGAAGGAG | -0.0964
162 | CGTAACAA | 0.293
163 | ATAAACTA | 0.211
164 | ACAACCTA | 0.035
165 | ACATGGCC | -0.013
166 | TTGACCAA | 0.104
167 | ACTTGACA | 0.087
168 | CTCTTTAC | 0.0191
169 | CAAGCGGC | 0.209
170 | GACGCGGC | 0.0612
171 | ACTACGGC | -0.121
172 | CGACGTTA | 0.037
173 | ACCATTAG | -0.0902
174 | GTAATACA | 0.0171
175 | ATATTGAC | 0.0234

Row | Sequence | PBM E-score
176 | AAGCCCCT | -0.169
177 | TCACTTAA | 0.191
178 | GGAATACC | -0.109
179 | AGAAAACC | 0.199
180 | GCTATTAA | 0.148
181 | CCCGGTCA | -0.0347
182 | GCACATGA | -0.101
183 | GTTGTCAA | 0.0137
184 | CTATAGCC | -0.344
185 | CGGTGCAC | 0.0133
186 | ACTATTCA | 0.0608
187 | CCGTATAC | -0.0202
188 | CCGAGACA | -0.0765
189 | ATCCGGTG | 0.0204
190 | CATGGCCC | 0.0579
191 | AAGCGCTT | 0.0528
192 | TCCGTTAA | 0.00055
193 | CTTATGTC | -0.103
194 | CGGTTCCC | -0.101
195 | CTCCAGAC | -0.0241
196 | GGGACAAA | 0.113
197 | TAGGTTAA | 0.0556
198 | CAACCGCC | -0.00632
199 | AGCGGATG | 0.0168
200 | ATACACGG | 0.00387

Row | Sequence | PBM E-score
201 | GACTTTCA | 0.0403
202 | GACAACCC | 0.118
203 | AAATGATA | 0.292
204 | ATGTAAAT | 0.113
205 | TGATAGCA | 0.118
206 | CTGTCCGC | -0.0238
207 | CTAATTAG | -0.00317
208 | AGGGGCCC | -0.147
209 | GCACAAGC | -0.104
210 | CACGATCC | 0.0258
211 | ATTCAGAA | 0.235
212 | AGAGCTAC | -0.201
213 | CGGCACTC | -0.211
214 | CCGAAGGA | -0.121
215 | ACAAAATC | 0.291
216 | ACTTGATG | 0.00022
217 | CGAGTAGA | -0.0637
218 | TAAAGGCA | 0.0797
219 | ACAAAAGT | -0.005
